This passage reports activation results from PubChem BioAssay AID1645887 (National Center for Advancing Translational Sciences (NCATS), 2021).

Several values for one entry are separate records, joined by “and”; a condition that tells them apart may be missing. Identical values can stand only once. The campaign covered roughly 16,000 compounds. About 40 (0.2%) were called active. Roughly 1% stayed inconclusive and do not appear here. Calls follow the shape of the dose curve; as a rule, active = well fitted activation curve with a large enough effect; inconclusive = small, poorly fitted or top-dose-only effect, or another doubt; inactive = no such curve, though single readings can be large or run the other way. The list shows a part of the results.
% is scaled to controls: 0 for no effect and ±100 for the full control effect.

The assay addresses Rap guanine nucleotide exchange factor 4 (Homo sapiens) (UniProt Q8WZA2). The experiment in a line: Validation qHTS for agonist of cAMP-regulated guanine nucleotide exchange factor 4 (EPAC2).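 Also: exchange makes BODIPY-GDP fluorescence drop when released from Rap1B; series mostly up to about 150 µM.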 The following applies: EPAC2 Rap1B BODIPY-GDP exchange, fluorescence; activation: active compounds read high. Summed up: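 Fluorescent exchange assay: 100 nM EPAC2 with 250 nM RAP1B-BODIPY-GDP and 50 uM GDP; compound added, 5 min at room temperature, then read (ex 480/em 540 nm) every 5 min for 30 min. Normalized to 6.5 mM cAMP agonist control.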
Sequence of UniProt Q8WZA2 (Q8WZA2 whole entry, looked up): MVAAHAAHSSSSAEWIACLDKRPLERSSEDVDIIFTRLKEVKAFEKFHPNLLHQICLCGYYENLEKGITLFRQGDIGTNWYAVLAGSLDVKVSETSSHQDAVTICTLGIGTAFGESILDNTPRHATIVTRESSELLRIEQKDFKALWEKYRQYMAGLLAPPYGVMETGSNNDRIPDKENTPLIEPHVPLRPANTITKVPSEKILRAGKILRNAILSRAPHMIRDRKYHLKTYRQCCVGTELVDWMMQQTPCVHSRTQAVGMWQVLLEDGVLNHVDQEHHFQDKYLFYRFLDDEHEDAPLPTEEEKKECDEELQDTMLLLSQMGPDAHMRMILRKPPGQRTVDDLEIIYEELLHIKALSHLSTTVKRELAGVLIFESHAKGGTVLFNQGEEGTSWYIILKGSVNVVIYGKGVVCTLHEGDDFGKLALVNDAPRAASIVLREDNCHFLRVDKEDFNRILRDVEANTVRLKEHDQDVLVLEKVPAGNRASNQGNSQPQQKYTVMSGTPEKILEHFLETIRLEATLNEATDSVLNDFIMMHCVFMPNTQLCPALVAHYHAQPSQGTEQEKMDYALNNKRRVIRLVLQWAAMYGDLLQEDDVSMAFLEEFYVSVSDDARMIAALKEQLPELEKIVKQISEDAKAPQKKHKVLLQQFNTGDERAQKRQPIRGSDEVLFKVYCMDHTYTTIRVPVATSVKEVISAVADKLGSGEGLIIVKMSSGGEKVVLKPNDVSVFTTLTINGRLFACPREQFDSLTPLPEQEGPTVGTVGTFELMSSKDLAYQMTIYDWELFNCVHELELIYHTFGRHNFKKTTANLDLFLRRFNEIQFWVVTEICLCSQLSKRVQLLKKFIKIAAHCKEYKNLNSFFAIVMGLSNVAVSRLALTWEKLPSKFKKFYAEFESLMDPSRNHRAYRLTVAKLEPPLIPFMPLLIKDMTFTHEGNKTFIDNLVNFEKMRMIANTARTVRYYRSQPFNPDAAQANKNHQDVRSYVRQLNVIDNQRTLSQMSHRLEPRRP
(In qHTS, concentration-response curves come from the screen itself.)
As for `Cc1c(C(=O)N2CCCC(c3ccccc3)C2)sc2ncnc(NCCc3ccccn3)c12` (stereo not drawn), the activation was inactive: -0.0832%.
For `COc1cc(=O)n2c(c1C(=O)NC(C)c1ccco1)CCN(C(=O)c1ccc(F)cc1Cl)CC2` (stereo not drawn), the activation was inactive: -5.34%.
As for `CCN(CCO)C(=O)c1cnn(-c2ncc3c(n2)-c2ccccc2CCC3)c1C1CC1`, the activation is inactive: 3.95%.
As to `OC(CCN1CCCC1)(c1ccccc1)C1CCCCC1` (stereo not drawn), the activation was inactive: -5.51% and inactive: -7.43%.
Consider `O=C(c1ccncc1)N1CCC2(CC1)CCN(c1ncccn1)CC2`, for which the activation is inactive: -7.61%.
Next, `Cn1c(=O)c2c(ncn2CCOC(=O)C(C)(C)Oc2ccc(Cl)cc2)n(C)c1=O`: inactive: 3.65%.
Next, `CC1COC2=C1C(=O)C(=O)c1c2ccc2c1CCCC2(C)C` (stereo not drawn): inactive: -9.58%; `CC(=O)N1CCC[C@@]2(CCN(Cc3cc(C(F)(F)F)cc(C(F)(F)F)c3)C2)C1`: inactive: -12.1%.
Take `CC(=O)/C(=C\c1ccccc1)CC(=O)O`: the activation is inactive: -16.7%.
For `COc1cc(=O)n2c(c1C(=O)N(C)Cc1nonc1C)CCN(Cc1c(F)cccc1F)CC2`, the activation was inactive: -13.9%.
Then `CC(C)NCC(O)COc1cccc2[nH]ccc12` (stereo not drawn), with inactive: 0.622% and inactive: 4.89% and inactive: -59.9%; and `COC(=O)[C@H]1[C@H]2C[C@H]3c4[nH]c5ccccc5c4CCN3C[C@H]2CC[C@@H]1O`, with inactive: -11.7% and inactive: -18.8%.
Then `Cc1ccccc1C(=O)O[C@H]1[C@H](Cc2ccccc2)NS(=O)(=O)[C@H]2CC3C=C[C@]12O3`, with inactive: -9.85%; and `CN(C)c1nc2cc3c(cc2cc1CN(CC1CCCO1)C(=O)/C=C/c1cccs1)OCO3` (stereo not drawn), with inactive: -9.24%; and `Cc1cc2c3c(cccc3n1)C(=O)c1ccccc1-2`, with inactive: -10.7%.
Regarding `COP(=O)(OC)OC(c1ccc(Cl)cc1)P(=O)(OC)OC` (stereo not drawn), the activation was inactive: -35.9%.
Consider `CC(CN(C)C)CN1c2ccccc2CCc2ccccc21` (stereo not drawn), for which the activation was inactive: 2.83% and inactive: -21.3% and inactive: -21.9%.
Then `CCCC(O)C(CC)CO` (stereo not drawn), with inactive: -0.449%; and `COc1ccc(CN2CCC(n3cc(C(=O)N4CCCCC4)nn3)CC2)c(OC)c1`, with inactive: 0.0126%.
As for `Cc1noc(C)c1-c1nccc(Nc2ccc(F)cc2)n1`, the activation was inactive: -6.57%.
Next, `NC(=O)c1cc[n+](CC2=C(C(=O)O)N3C(=O)C(NC(=O)C(c4ccccc4)S(=O)(=O)[O-])C3SC2)cc1` (stereo not drawn): inactive: -5.54%; `COc1ccc(-n2c(=O)cnc3cnc(N4CCOCC4)nc32)cc1`: inactive: -4.77%; `O=C(NCCN1CCOCC1)c1cnn(-c2ncc3c(n2)-c2ccccc2CC3)c1C1CC1`: inactive: -8.97%.
Then `NC(=O)c1ccccc1`, with inactive: -41.7%; and `COc1ccccc1C1CN(Cc2cccnc2)Cc2ccccc2O1` (stereo not drawn), with inactive: -6.66%; and `O=C(c1csnn1)N1CCC2(CCCN(Cc3cc(C(F)(F)F)cc(C(F)(F)F)c3)C2)CC1`, with inactive: -5.92%.
For the compound `O=c1cnc2cnc(N3CCOCC3)nc2n1CCc1ccccc1`, the activation was inactive: -3.61%.
Regarding `O=C(Nc1cccc(F)c1)N1CC2(CCN(C(=O)c3cccc(F)c3)CC2)C1`, the activation was inactive: -6.91%.
Next, `COCCn1c(=O)c(-c2cn(C)c3ccccc23)nc2cncnc21`: inactive: 3.9%.
Take `CC(=O)OC1CC2C(C)(C)C(=O)CC[C@]2(C)C2CC[C@@]3(C)C(c4ccoc4)OC(=O)C4OC43[C@]12C` (stereo partly drawn): the activation is inactive: 7.16%.
As for `C=C1C2CC[C@@]3(C)C(c4ccoc4)OC(=O)C[C@@]13OC1CC(O)C(C)(C)C(CC(=O)OC)[C@@]12C` (stereo partly drawn), the activation is inactive: -22.9% and inactive: -14.9%.
For the compound `CCCCCCCCCCCCCCCC(=O)N[C@H](CN1CCOCC1)[C@H](O)c1ccccc1`, the activation was inactive: -40.1%.
Then `Cc1ccnc2ccc(I)cc12`, with inactive: -12.5%; and `COc1ccccc1CNc1ncncc1-c1cccc(C#N)c1`, with inactive: -24.3%; and `Cn1nccc1C(=O)NCC1CCC2(CCN(Cc3cccc4ncccc34)CC2)O1` (stereo not drawn), with inactive: -1.94%.
Next, `CC1(C)O[C@@H]2C[C@H]3[C@@H]4C[C@H](F)C5=CC(=O)C=C[C@]5(C)[C@H]4[C@@H](O)C[C@]3(C)[C@]2(C(=O)CO)O1`: inactive: 8.81%; `COC(=O)[C@@H]1C[C@@H](NC(=O)c2cccc3c(C)c(C)[nH]c23)CN1Cc1cccc2ccccc12`: inactive: -9.49%.
Next, `C[C@@H]1CC[C@H]2[C@H](C)[C@H]3CC[C@H]4C5[C@@H](O)CC6=CC(=O)CC[C@]6(C)[C@H]5C[C@H]4C3C(=O)N2C1` (stereo partly drawn): inactive: -6.48%; `Cn1cnc2c(F)c(Nc3ccc(Br)cc3Cl)c(C(=O)NOCCO)cc21`: inactive: -16%.
`CCOC(=O)C[C@H]1c2cc(F)ccc2S(=O)(=O)N1C1CCCCC1`: the activation was inactive: -12%.
Regarding `CC(C)Oc1ccc(C(=O)NCC2Cc3cc(F)cc(-c4cnccn4)c3O2)cc1` (stereo not drawn), the activation was inactive: -24.6%.
Then `CCN1CCN(C(=O)c2cc(NC(=O)COC)cc3nc(-c4ccncc4)n(C)c23)CC1`, with inactive: -20.5%.
Then `O=C1OC(C(O)CO)C(O)=C1O` (stereo not drawn), with inactive: -6.31%.
In the case of `COc1ccccc1-c1nccc(-n2ccnc2)n1`, the activation was inactive: -17.9%.
Then `CN(Cc1cc(Br)cc(Br)c1N)C1CCCCC1`, with inactive: -8.49%; and `CCN(CC)C1CCN(C(=O)c2cnn(-c3nccc(-c4ccco4)n3)c2C(C)C)C1` (stereo not drawn), with inactive: 2.52%.
Then `COc1ccccc1-c1nc(N2CCOCC2)c2ccccc2n1`, with inactive: 7.99%; and `OC[C@H]1OC([S-])[C@H](O)[C@@H](O)[C@@H]1O.[Au+]` (stereo partly drawn), with inactive: -8.77%; and `COc1ccc2c(=O)cc(-c3ccc(O)cc3)oc2c1`, with inactive: -3.27%.
Regarding `C[C@H](Cc1ccc(O)c(O)c1)[C@@H](C)Cc1ccc(O)c(O)c1`, the activation was inactive: -20.7% and inactive: -78.2%.
Next, `O=C(c1cccc(Cl)c1)N1CCCC(Cn2cc(C(=O)N3CCCC3)nn2)C1` (stereo not drawn): inactive: 3.75%; `CCn1c(-c2ccccc2F)nc2cc(C(=O)NC(c3ccccn3)C(F)(F)F)cc(NC(C)=O)c21` (stereo not drawn): inactive: -11.2%; `NCCc1ccc(O)c(O)c1`: inactive: -10.5% [middle of 4 runs].
Then `CC(=O)N1CCC[C@@]2(CCN(C(=O)Nc3cccc(C#N)c3)C2)C1`, with inactive: -19.1%; and `O=C(Nc1ccccc1)N1CCCC2(CCN(C(=O)c3cnccn3)CC2)C1`, with inactive: 13.1%; and `c1ccc(CNc2ncncc2-c2ccoc2)cc1`, with inactive: -7.31%.
With `CCCCCC=CCC=CCCCCCCCC(=O)OCC`, the activation was inactive: -22.6%.
Turning to `CC(=O)NCCNc1ncnc2ccc(-c3c(C)noc3C)cc12`, the activation is inactive: -13.6%.
In the case of `NC(N)=NC(N)=Nc1ccccc1`, the activation is inactive: -10.6% [middle of 4 runs].
Then `O=c1c(-c2ccccc2)nc2cnc(N3CCOCC3)nc2n1Cc1cccs1`, with inactive: -14.4%; and `Cc1c(Nc2ncccc2C(=O)O)cccc1C(F)(F)F`, with inactive: -1% and inactive: -15%; and `CC[C@H](c1ccc(O)cc1)[C@@H](CC)c1ccc(O)cc1`, with inactive: -12.6%.
Then `O=C(Cc1ccccc1)NO`, with inactive: -7.82%.
Next, `CN(Cc1ccon1)C(=O)c1cnn(-c2nccc(-c3ccc4c(c3)OCO4)n2)c1C1CC1`: inactive: -2.7%.
Consider `CCN(Cc1ccncc1)Cc1ccc2c(c1)CN(C(=O)c1ccc(OC)cc1)CCO2`, for which the activation was inactive: 2.51%.
Next, `CCCCC(=O)O[C@]1(C(=O)CO)[C@H](C)C[C@H]2[C@@H]3CCC4=CC(=O)C=C[C@]4(C)[C@@]3(F)[C@@H](O)C[C@@]21C`: inactive: -20.2%; `O=C(C[n+]1cccc(Br)c1)c1ccc(Br)cc1`: inactive: -1.71%; `COc1cc(N)c(Cl)cc1C(=O)OCCN1CCCCC1`: inactive: -24.5%.
Next, `COc1cccc(Cn2c(=O)c(-c3cccc(C#N)c3)nc3cnc(N4CCN(C)CC4)nc32)c1`: inactive: -15.4%; `Cc1cc(C)nc(-c2cccc3c2OC(CNC(=O)C2CCOC2)C3)n1` (stereo not drawn): inactive: -3.15%; `CCCCC(=O)OCC(=O)[C@H]1[C@H](C)C[C@H]2[C@@H]3C[C@H](F)C4=CC(=O)C=C[C@]4(C)[C@@]3(F)[C@@H](O)C[C@@]21C`: inactive: -23.2%.
Next, `Cc1ccn(CCC(=O)N2CCOc3ccc(C(O)C4CCCCC4)cc3C2)n1` (stereo not drawn): inactive: -23.3%.
Regarding `CC1c2cccc(O)c2C(O)=C2C(=O)[C@]3(O)C(O)=C(C(N)=O)C(=O)C(N(C)C)C3C(O)C21` (stereo partly drawn), the activation is inactive: -3.42%.
Next, `C[C@@H]1CCN=C(N)S1`: inactive: -0.438%; `COc1cccc(-c2cncnc2NCc2ccccc2OC)c1`: inactive: -8.46%.
In the case of `COCCn1c(=O)c(-c2ccccc2)nc2cnc(Nc3cccc(OC)c3)nc21`, the activation is inactive: -9.54%.
For the compound `O=c1c(O)cc(C2Oc3cc(O)cc(O)c3CC2O)cc2c(C3Oc4cc(O)cc(O)c4CC3O)cc(O)c(O)c12` (stereo not drawn), the activation is inactive: -12.4%.
With `CO[C@H]1[C@H](NC(=O)c2cccc(F)c2)c2ccccc2C12CCN(Cc1ccco1)CC2`, the activation was inactive: -6.27%.
With `CC(Oc1ccccc1)C(=O)N[C@@H]1C(=O)N2C(C(=O)OCC3CCCCC3)C(C)(C)S[C@H]12` (stereo partly drawn), the activation was inactive: -9.87%.
For `CCCCCC(O)CCCC(=O)O` (stereo not drawn), the activation was inactive: 1.86% and inactive: -5.89% and inactive: -24.8%.
Then `CCCCCc1c2c(cc(O)c1C(=O)O)OC(=O)c1cc(C(=O)CCCC)c(OC)cc1O2`, with inactive: -4.3%; and `O=C(c1cnccn1)N1CCC[C@@]2(CCN(C(c3ccccc3)c3ccccc3)C2)C1`, with inactive: -13.3%; and `N#Cc1cccc(NC(=O)N2CC[C@@]3(CCCN(C(=O)c4cccc(F)c4)C3)C2)c1`, with inactive: -5.37%.
